In article PMC4336329 (PLoS ONE, 2015):
In all, about 310,000 compounds went through this assay and about 2,200 (0.71%) showed an effect of 50% or more. The effect is printed as a negative number. The list shows a part of the results.

molecular target: human ether-à-go-go-related gene (hERG) potassium channel (human, UniProt Q12809); assay: primary screen, population patch clamp on CHO cells stably expressing hERG
Sequence (Q12809 whole entry, looked up): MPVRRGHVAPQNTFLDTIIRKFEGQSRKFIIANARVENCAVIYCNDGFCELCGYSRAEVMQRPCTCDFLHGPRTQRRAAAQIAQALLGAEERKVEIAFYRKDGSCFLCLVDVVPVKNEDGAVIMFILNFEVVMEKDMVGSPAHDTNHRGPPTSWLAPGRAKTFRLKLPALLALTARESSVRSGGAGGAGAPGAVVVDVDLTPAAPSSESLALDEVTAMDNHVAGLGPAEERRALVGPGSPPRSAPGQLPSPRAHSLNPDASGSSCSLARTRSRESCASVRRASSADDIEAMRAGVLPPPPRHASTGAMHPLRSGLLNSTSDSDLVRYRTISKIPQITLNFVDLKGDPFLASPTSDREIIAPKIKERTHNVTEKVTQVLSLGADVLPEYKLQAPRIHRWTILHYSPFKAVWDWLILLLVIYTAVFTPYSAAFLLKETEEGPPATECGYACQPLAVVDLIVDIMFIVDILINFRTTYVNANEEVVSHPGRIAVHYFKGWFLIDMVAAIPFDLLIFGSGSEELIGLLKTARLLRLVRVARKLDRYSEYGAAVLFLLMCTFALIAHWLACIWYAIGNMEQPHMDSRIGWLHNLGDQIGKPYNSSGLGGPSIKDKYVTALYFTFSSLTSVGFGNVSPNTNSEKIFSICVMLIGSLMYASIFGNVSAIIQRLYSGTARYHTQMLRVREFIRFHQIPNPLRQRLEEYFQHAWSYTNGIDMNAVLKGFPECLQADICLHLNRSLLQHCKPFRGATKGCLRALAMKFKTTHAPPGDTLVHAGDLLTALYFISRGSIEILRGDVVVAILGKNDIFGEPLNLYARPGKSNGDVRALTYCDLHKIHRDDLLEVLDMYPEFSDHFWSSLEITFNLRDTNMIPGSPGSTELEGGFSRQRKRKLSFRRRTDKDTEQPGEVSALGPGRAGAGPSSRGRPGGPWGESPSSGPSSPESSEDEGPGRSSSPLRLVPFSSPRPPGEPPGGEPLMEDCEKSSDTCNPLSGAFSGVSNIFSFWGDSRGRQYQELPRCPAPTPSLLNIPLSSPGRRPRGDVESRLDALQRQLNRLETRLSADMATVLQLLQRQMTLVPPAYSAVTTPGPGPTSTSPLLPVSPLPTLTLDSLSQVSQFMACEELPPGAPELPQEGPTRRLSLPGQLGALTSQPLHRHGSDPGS

| Structure (SMILES) | hERG current change (%, negative = inhibition) at 1uM |
| --- | --- |
| COc1ccc(C(=O)N/C(=C\c2ccccc2)C(=O)NCCCn2ccnc2)cc1 | -18.2% |
| CCOC(=O)c1sc2nc(CC(=O)OC)nc(N(C)CCc3ccccn3)c2c1C | 10.3% |
| NC(=O)c1cc([N+](=O)[O-])ccc1NCc1ccc(F)cc1 | 2.02% |
| CCOc1ccc(Br)cc1C(=O)N/N=C/c1ccc([N+](=O)[O-])cc1 | 15.2% |
| CC(=O)c1c(N2CCN(C(=O)C3CCCO3)CC2)nc(=S)n(-c2ccccc2)c1C (centres unmarked) | 6.82% |
| O=c1c2ccccc2nc(-c2ccco2)n1-c1ccccn1 | 7.94% |
| COC(=O)c1nn(-c2ccc(OC)cc2)ccc1=O | 12.9% |
| C[N+](C)(C)CCOc1ccc([N+](=O)[O-])cc1.[Br-] | -5.29% |
| O=C(NCC1CCCN1S(=O)(=O)c1cccs1)c1ccc(Cl)cc1 (centres unmarked) | -14.4% |
| CCCC(=O)N1CCN(c2nc3c(OC)ccc(Cl)c3s2)CC1 | 0.766% |
| Cc1cccc(C)c1NC(=O)NC1(C(=O)NCCN2CCOCC2)CCCCC1 | 10.3% |
| COc1cc(C)c(NC(=O)COc2ccc3c(c2)CCC3)cc1OC | 4.07% |
| CCOC(=O)c1sc(NC(=O)c2ccc(S(=O)(=O)N3CCCCC3)cc2)nc1-c1ccccc1 | 16.7% |
| Cl.Cn1c(=O)c2c(nc(N3CCOCC3)n2CCCNC2=NCCC2)n(C)c1=O | 13% |
| O=C(CNC(=O)Cn1ccc2ccccc2c1=O)NCCCN1CCCCCC1 | 4.85% |
| O=C(NCc1ccc(OC(F)(F)F)cc1)C1CC2Cn3c(nc4ccccc43)C2N1c1ccccc1 (centres unmarked) | -15.8% |
| Clc1ccc(-n2cccc2/C=N/n2cnnc2)cc1 | 4.11% |
| C/C(=N\OCc1ccc(C#N)cc1)c1ccccc1 | 19.1% |
| Nc1c(-c2ccccc2)c(CN2CCOCC2)nn1-c1ccc(C(=O)O)cc1.O=S(=O)(O)O | 0.0577% |
| O=C(O)/C=C/c1nc(-c2ccccc2)n2ccccc12 | 3.67% |
| CCCCN(C(=O)c1ccc(C)c(S(=O)(=O)N2CCOCC2)c1)c1c(N)n(CCCC)c(=O)[nH]c1=O | 5.43% |
| Cc1ccc(-c2nn3c(C)nnc3c3ccccc23)cc1S(=O)(=O)NCc1ccco1 | -16.2% |

| Structure (SMILES) | hERG current change (%, negative = inhibition) at 1uM |
| --- | --- |
| CC(Sc1nnc(NC2CCCCC2)s1)C(=O)N1CCOCC1 (centres unmarked) | 13.2% |
| CCOc1ccc(N(CC(=O)NCCSCc2ccccc2Cl)S(C)(=O)=O)cc1 | 6.76% |
| O=S(=O)(c1cccc2cccnc12)N1CCN(Cc2ccccc2)CC1 | 1.09% |
| O=C(CCC(=O)c1cccs1)Nc1ccc(F)c(F)c1F | 9.52% |
| O=C(NCCN1CCOCC1)C1CCN(S(=O)(=O)N2CCCCC2)CC1 | 10.7% |
| COc1ccc(OC)c(C(O)c2coc3ccc(O)c(CN4CCOCC4)c23)c1 (centres unmarked) | 3.86% |
| OC(CNCc1ccc(F)cc1)(c1ccc(F)cc1)c1ccc(F)cc1 | 4.16% |
| O=C(COc1ccc(Cl)cc1)NCc1ccncc1 | 2.38% |
| COCCN(CCOC)S(=O)(=O)c1ccc(C(=O)NC2CCN(Cc3ccccc3)CC2)cc1.Cl | -1.24% |
| O=C(CN1CCN(Cc2ccccc2F)C1=O)NCc1ccco1 | 15.2% |
| C[N+](C)(C)CCCCCC[N+](C)(C)C.[Br-] | 5.85% |
| CCOC(=O)c1ccc(-c2c(-c3ccccc3OC)oc3ccccc23)cc1F | 9.68% |
| COc1ccc(OC)c(-c2cc(C(F)(F)F)c3c(n2)sc2c(O)cc(=O)[nH]c23)c1 | 15.2% |
| COc1cccc(Cn2c(=O)c3ccccc3n3nc(C)cc23)c1 | 4.91% |
| CCOc1ccc(-n2c(-c3ccccc3)nnc2-c2ccccc2)cc1 | 2.39% |
| CCc1nnc(SCC(=O)N2CCc3ccccc32)n1CC | 10.2% |
| O=C(O)Cc1ccc(NC(=O)c2cccc(NC(=O)c3ccco3)c2)cc1 | 12.7% |
| Cc1ccc2c(c1)[C@H]1[C@H](CO2)[C@H](c2ccccc2)[C@]2(C)C(=O)NCC(=O)N12 | 14.4% |
| CCCCCSc1nc2c(c(=O)[nH]c(=O)n2C)n1CCc1ccccc1 | 6.05% |
| COc1ccc(S(=O)(=O)N2CCN(C(=O)CCOc3ccccc3)CC2)cc1OC | 3.11% |
| COc1cc(-c2nc(N)n[nH]2)cc(OC)c1OC | 14.4% |
| O=C(NCc1ccccc1)N1CCN(CCO)CC1 | 12.4% |
